Hit rate of the full screen: of about 310,000 compounds, about 14,000 (4.5%) showed an effect of 50% or more. Effects have a minus sign here. Some of the results follow.
Target: human ether-à-go-go-related gene (hERG) potassium channel (human, UniProt Q12809)
Assay: primary screen, population patch clamp on CHO cells stably expressing hERG
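Further: peak tail current of the secondary pulse compared with the same well before compound.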

Sequence of human ether-à-go-go-related gene (hERG) potassium channel (Q12809 whole entry, looked up): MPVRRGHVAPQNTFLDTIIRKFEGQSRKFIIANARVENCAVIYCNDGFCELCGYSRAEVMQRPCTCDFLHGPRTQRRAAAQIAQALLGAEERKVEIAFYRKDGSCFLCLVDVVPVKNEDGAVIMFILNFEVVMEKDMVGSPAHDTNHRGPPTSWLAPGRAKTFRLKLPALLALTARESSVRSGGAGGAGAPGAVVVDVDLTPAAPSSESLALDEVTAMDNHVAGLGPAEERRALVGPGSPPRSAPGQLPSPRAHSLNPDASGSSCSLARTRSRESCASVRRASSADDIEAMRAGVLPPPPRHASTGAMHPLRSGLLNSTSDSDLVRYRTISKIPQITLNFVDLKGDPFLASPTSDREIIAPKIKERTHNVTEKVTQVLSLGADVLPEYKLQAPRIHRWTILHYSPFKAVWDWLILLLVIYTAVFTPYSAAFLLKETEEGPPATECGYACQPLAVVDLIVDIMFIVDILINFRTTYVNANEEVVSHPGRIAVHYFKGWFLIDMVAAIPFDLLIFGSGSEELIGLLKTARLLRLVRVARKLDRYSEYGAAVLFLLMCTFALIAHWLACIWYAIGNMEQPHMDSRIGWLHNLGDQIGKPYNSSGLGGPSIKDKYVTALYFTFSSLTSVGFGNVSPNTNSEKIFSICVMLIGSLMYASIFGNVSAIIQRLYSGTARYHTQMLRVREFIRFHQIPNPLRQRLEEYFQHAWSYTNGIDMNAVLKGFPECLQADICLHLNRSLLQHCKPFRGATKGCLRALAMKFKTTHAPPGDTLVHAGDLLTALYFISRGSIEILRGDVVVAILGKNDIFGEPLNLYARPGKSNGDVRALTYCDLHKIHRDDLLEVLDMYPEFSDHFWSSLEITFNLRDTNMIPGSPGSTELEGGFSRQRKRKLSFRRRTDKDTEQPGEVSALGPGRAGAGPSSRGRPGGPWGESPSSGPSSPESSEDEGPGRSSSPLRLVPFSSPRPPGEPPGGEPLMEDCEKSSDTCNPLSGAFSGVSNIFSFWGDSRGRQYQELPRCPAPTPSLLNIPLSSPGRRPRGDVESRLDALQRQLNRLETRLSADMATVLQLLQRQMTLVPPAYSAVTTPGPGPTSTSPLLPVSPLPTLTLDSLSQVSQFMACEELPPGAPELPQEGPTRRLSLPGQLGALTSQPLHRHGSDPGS

SMILES | hERG current change (%, negative = inhibition) at 10uM [%]
O=C(/C=C/c1c[nH]c2ccccc12)c1ccccc1 | 16.2
O=C(O)c1cccc(N2C(=O)C3CC=C(Cl)CC3C2=O)c1 (stereo not drawn) | 3.3
COc1ccc(C(C#N)N2N=C(C)CC2c2ccccc2)cc1OC (stereo not drawn) | -5.58
C1=C[C@@H]2CCN(Cc3ccccc3)Cc3cccc(c32)C1 | -50.6
COc1cccc(C(O)c2nccn2Cc2ccccc2)c1OC (stereo not drawn) | 15.6
CSc1nc2ccc(NC(=O)C3CC(=O)N(Cc4ccco4)C3)cc2s1 (stereo not drawn) | -44.6
COc1ccc(CCNC(=O)C2CCC(CNS(=O)(=O)c3ccccc3)CC2)cc1OC (stereo not drawn) | -18.4
C=CCc1ccc(OCCOc2ccc(/C=N/n3cnnc3)cc2OCC)c(OC)c1 | 6.66
CC(C)(C)c1cc(N)n2nc(C(C)(C)C)cc2n1 | 24.6
O=S(=O)(Nc1ccc2c(c1)nc1n2CCOC1)c1ccccc1 | -7.78
COC(=O)CCN(C(=O)c1ccc(Cl)c([N+](=O)[O-])c1)c1ccccn1 | -12.2
O=C(c1ccccc1Br)N1CCN(Cc2ccc3c(c2)OCO3)CC1 | 6.79
Clc1cccc(-c2csc(Nc3cccnc3)n2)c1 | 9.82
CCCCC(=O)Nc1cccc(-c2nnc(-c3ccccc3)o2)c1 | -31
COc1ccc(N(CC(=O)Nc2cc(Cl)ccc2OC)S(=O)(=O)c2c(C)[nH]c(=O)[nH]c2=O)cc1 | 9.92
COc1ccc(/C=C2\SC(=S)N(NC(=O)c3ccncc3)C2=O)cc1OC | -3.31
Cc1ccc(NC(=O)Cn2cc(C(F)(F)F)cc(Cl)c2=O)cc1Cl | 20.1
COc1ccc(C(C(=O)Nc2ccc(F)cc2)N(C(=O)Cn2nnc3ccccc32)C2CC2)cc1 (stereo not drawn) | -45.6
O=S1(=O)CCN2N=C(C34CC5CC(CC(C5)C3)C4)SC2=N1 | 12
COc1ccc(NC(=O)N2CCC(c3ccccc3)C2)c(OC)c1 (stereo not drawn) | -1.5
CCOP(=S)(OCC)Oc1cc(C)oc(=O)c1Cl | 19.6
C=CCNc1nc(N)c(C(=O)c2ccc3c(c2)OCO3)s1 | -19.7
O=C(O)CN1C(=O)C(=O)N(Cc2cccc(F)c2)C1=O | 18.8

SMILES | hERG current change (%, negative = inhibition) at 10uM [%]
CC(=O)Nc1ccc(NC(=O)C2CC(=O)N(c3cccc(C)c3C)C2)cc1 (stereo not drawn) | 9.48
Cc1ccc(S(=O)(=O)NCC(=O)N(CC(=O)NCC2CCCO2)c2ccc(Cl)cc2)cc1 (stereo not drawn) | -28.7
NS(=O)(=O)c1ccc(NC(=O)CN2CCCCC2)cc1 | -2.19
COc1ccc(CSc2nnc(-c3ccncc3)n2C)cc1F | 12.1
Cc1nc(=O)c(-c2ccccc2)c(C)n1CCO | 18.6
CCOC(=O)c1c(C)nc(-c2ccccc2)nc1NC(=O)C(C)C | 5.9
C=CCN1C(=O)N(/C=C/C)c2cccc3cccc1c23 | 8.89
CCOC(=O)C1C(=O)OC(C)(C)C1C(CC)C(=O)c1c(C)cc(C)cc1C (stereo not drawn) | -7.51
O=C(O)CCc1ccc(-c2cccs2)n1NC(=O)c1ccc(O)cc1 | -6.38
O=S(=O)(NC1CC1)c1ccc(Cl)cc1F | 8.33
CC1C(=O)NN=C1C(=O)N/N=C/c1ccco1 (stereo not drawn) | 7.6
CCOC(=O)[C@@H]1C(c2c(OC)cc(OC)cc2OC)=NO[C@@H]1C(=O)OCC | -9.78
O=c1c(-c2c(O)cc(O)c3c(=O)cc(-c4ccc(O)cc4)oc23)c(-c2ccc(O)cc2)oc2cc(O)cc(O)c12 | 21.9
CC1(C(=O)N2CCN(Cc3ccccc3Cl)CC2)CC1(Cl)Cl (stereo not drawn) | 1.51
CCN(CC)C(=O)Oc1nnc(SC(C)C)n1-c1ccc(Cl)c(Cl)c1 | -7.2
S=C(Nc1ccc(Oc2ccccc2)cc1)Nc1cccnc1 | -4.7
Cc1ccc(C)c(OCC(=O)NNC(=O)C2CC2)c1 | -3.18
CSc1nnc(C(C)(C)C)c(=O)n1/N=C/c1ccc(C(C)C)cc1 | 28.3
O=C1CN(C(=O)COC(=O)c2ccc([N+](=O)[O-])o2)c2ccccc2N1 | 1.92
CCn1cc(C(=O)Nc2cccc(C)c2)c(=O)c2ccc(C)nc21 | 19.5
COC(=O)C1(C)CC1(c1ccccc1)c1ccccc1 (stereo not drawn) | -3.98
COc1ccc(Br)cc1C1CC(=O)N2CN(Cc3ccccc3)CSC2=C1C#N (stereo not drawn) | 13.2
